Measured values from the supplement of paper PMC8728848.
Some of the results follow.

Columns and labels:
Test in all cases: glycan array binding signal (z-score within array); higher = stronger binding
Settings in all cases: glycan notation: IUPAC condensed, linker removed
Gal(b1-4)Glc = biological target: Gal(b1-4)Glc
Procedure, shortened: (§1)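 Glycan array data were curated from 3228 arrays in the Consortium for Functional Glycomics database and kept only where the protein sequence was available. Glycan names were converted to IUPAC-condensed notation, and columns mapping to the same glycan were averaged. The binding signal is a within-array Z-score, averaged across arrays of the same protein sequence at different concentrations or buffers and across linkers. Negative Z-scores can be read as non-binding.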

Gal(b1-4)Glc6S = biological target: Gal(b1-4)Glc6S
Procedure, shortened: as §1

Gal(b1-4)GlcNAc = biological target: Gal(b1-4)GlcNAc
Procedure, shortened: as §1

[1] = biological target: Gal(b1-4)GlcNAc(a1-6)Gal(b1-4)GlcNAc
Procedure, shortened: as §1

Gal(b1-4)GlcNAc(b1-2)Man = biological target: Gal(b1-4)GlcNAc(b1-2)Man
Procedure, shortened: as §1

[2] = biological target: Gal(b1-4)GlcNAc(b1-2)Man(a1-3)Man(b1-4)GlcNAc(b1-4)GlcNAc
Procedure, shortened: as §1

[3] = biological target: Gal(b1-4)GlcNAc(b1-2)Man(a1-3)[Gal(b1-4)GlcNAc(b1-2)Man(a1-6)]Man(b1-4)GlcNAc(b1-4)GlcNAc
Procedure, shortened: as §1

[4] = biological target: Gal(b1-4)GlcNAc(b1-2)Man(a1-3)[Gal(b1-4)GlcNAc(b1-2)Man(a1-6)]Man(b1-4)GlcNAc(b1-4)[Fuc(a1-6)]GlcNAc
Procedure, shortened: as §1

[5] = biological target: Gal(b1-4)GlcNAc(b1-2)Man(a1-3)[Gal(b1-4)GlcNAc(b1-2)Man(a1-6)][Gal(b1-4)GlcNAc(b1-4)]Man(b1-4)GlcNAc(b1-4)[Fuc(a1-6)]GlcNAc
Procedure, shortened: as §1

[6] = biological target: Gal(b1-4)GlcNAc(b1-2)Man(a1-3)[Gal(b1-4)GlcNAc(b1-2)Man(a1-6)][GlcNAc(b1-4)]Man(b1-4)GlcNAc(b1-4)[Fuc(a1-6)]GlcNAc
Procedure, shortened: as §1

[7] = biological target: Gal(b1-4)GlcNAc(b1-2)Man(a1-3)[GlcNAc(b1-2)Man(a1-6)]Man(b1-4)GlcNAc(b1-4)GlcNAc
Procedure, shortened: as §1

[8] = biological target: Gal(b1-4)GlcNAc(b1-2)Man(a1-3)[GlcNAc(b1-4)][Gal(b1-4)GlcNAc(b1-2)Man(a1-6)]Man(b1-4)GlcNAc(b1-4)GlcNAc
Procedure, shortened: as §1

[9] = biological target: Gal(b1-4)GlcNAc(b1-2)Man(a1-3)[Man(a1-6)]Man(b1-4)GlcNAc(b1-4)GlcNAc
Procedure, shortened: as §1

[10] = biological target: Gal(b1-4)GlcNAc(b1-2)Man(a1-6)Man(b1-4)GlcNAc(b1-4)GlcNAc
Procedure, shortened: as §1

[11] = biological target: Gal(b1-4)GlcNAc(b1-2)Man(a1-6)[GlcNAc(b1-2)Man(a1-3)]Man(b1-4)GlcNAc(b1-4)GlcNAc
Procedure, shortened: as §1

[12] = biological target: Gal(b1-4)GlcNAc(b1-2)Man(a1-6)[Man(a1-3)]Man(b1-4)GlcNAc(b1-4)GlcNAc
Procedure, shortened: as §1

[13] = biological target: Gal(b1-4)GlcNAc(b1-2)[Gal(b1-4)GlcNAc(b1-4)]Man(a1-3)[Gal(b1-4)GlcNAc(b1-2)Man(a1-6)]Man(b1-4)GlcNAc(b1-4)GlcNAc
Procedure, shortened: as §1

[14] = biological target: Gal(b1-4)GlcNAc(b1-2)[Gal(b1-4)GlcNAc(b1-4)]Man(a1-3)[Gal(b1-4)GlcNAc(b1-2)[Gal(b1-4)GlcNAc(b1-6)]Man(a1-6)]Man(b1-4)GlcNAc(b1-4)GlcNAc
Procedure, shortened: as §1

[15] = biological target: Gal(b1-4)GlcNAc(b1-2)[Gal(b1-4)GlcNAc(b1-4)]Man(a1-3)[GlcNAc(b1-4)][Gal(b1-4)GlcNAc(b1-2)Man(a1-6)]Man(b1-4)GlcNAc(b1-4)GlcNAc
Procedure, shortened: as §1

[16] = biological target: Gal(b1-4)GlcNAc(b1-2)[Gal(b1-4)GlcNAc(b1-4)]Man(a1-3)[GlcNAc(b1-4)][Gal(b1-4)GlcNAc(b1-2)[Gal(b1-4)GlcNAc(b1-6)]Man(a1-6)]Man(b1-4)GlcNAc(b1-4)GlcNAc
Procedure, shortened: as §1

[17] = biological target: Gal(b1-4)GlcNAc(b1-2)[Gal(b1-4)GlcNAc(b1-6)]Man(a1-6)[Gal(b1-4)GlcNAc(b1-2)Man(a1-3)]Man(b1-4)GlcNAc(b1-4)GlcNAc
Procedure, shortened: as §1

[18] = biological target: Gal(b1-4)GlcNAc(b1-2)[Gal(b1-4)GlcNAc(b1-6)]Man(a1-6)[Gal(b1-4)GlcNAc(b1-2)Man(a1-3)]Man(b1-4)GlcNAc(b1-4)[Fuc(a1-6)]GlcNAc
Procedure, shortened: as §1

[19] = biological target: Gal(b1-4)GlcNAc(b1-2)[Gal(b1-4)GlcNAc(b1-6)]Man(a1-6)[GlcNAc(b1-4)][Gal(b1-4)GlcNAc(b1-2)Man(a1-3)]Man(b1-4)GlcNAc(b1-4)GlcNAc
Procedure, shortened: as §1

[20] = biological target: Gal(b1-4)GlcNAc(b1-2)[Gal(b1-4)GlcNAc(b1-6)]Man(a1-6)[GlcNAc(b1-4)][Gal(b1-4)GlcNAc(b1-2)[Gal(b1-4)GlcNAc(b1-4)]Man(a1-3)]Man(b1-4)GlcNAc(b1-4)[Fuc(a1-6)]GlcNAc
Procedure, shortened: as §1

[21] = biological target: Gal(b1-4)GlcNAc(b1-3)Gal(b1-3)GalNAc
Procedure, shortened: as §1

[22] = biological target: Gal(b1-4)GlcNAc(b1-3)Gal(b1-3)GlcNAc
Procedure, shortened: as §1

[23] = biological target: Gal(b1-4)GlcNAc(b1-3)Gal(b1-4)Glc
Procedure, shortened: as §1

[24] = biological target: Gal(b1-4)GlcNAc(b1-3)Gal(b1-4)GlcNAc
Procedure, shortened: as §1

[25] = biological target: Gal(b1-4)GlcNAc(b1-3)Gal(b1-4)GlcNAc(b1-2)Man(a1-3)[Gal(b1-4)GlcNAc(b1-3)Gal(b1-4)GlcNAc(b1-2)Man(a1-6)]Man(b1-4)GlcNAc(b1-4)GlcNAc
Procedure, shortened: as §1

[26] = biological target: Gal(b1-4)GlcNAc(b1-3)Gal(b1-4)GlcNAc(b1-2)Man(a1-3)[Gal(b1-4)GlcNAc(b1-3)Gal(b1-4)GlcNAc(b1-2)Man(a1-6)]Man(b1-4)GlcNAc(b1-4)[Fuc(a1-6)]GlcNAc
Procedure, shortened: as §1

[27] = biological target: Gal(b1-4)GlcNAc(b1-3)Gal(b1-4)GlcNAc(b1-2)[Gal(b1-4)GlcNAc(b1-3)Gal(b1-4)GlcNAc(b1-6)]Man(a1-6)[Gal(b1-4)GlcNAc(b1-3)Gal(b1-4)GlcNAc(b1-2)Man(a1-3)]Man(b1-4)GlcNAc(b1-4)GlcNAc
Procedure, shortened: as §1

[28] = biological target: Gal(b1-4)GlcNAc(b1-3)Gal(b1-4)GlcNAc(b1-2)[Gal(b1-4)GlcNAc(b1-3)Gal(b1-4)GlcNAc(b1-6)]Man(a1-6)[Gal(b1-4)GlcNAc(b1-3)Gal(b1-4)GlcNAc(b1-2)Man(a1-3)]Man(b1-4)GlcNAc(b1-4)[Fuc(a1-6)]GlcNAc
Procedure, shortened: as §1

[29] = biological target: Gal(b1-4)GlcNAc(b1-3)Gal(b1-4)GlcNAc(b1-3)Gal(b1-4)GlcNAc
Procedure, shortened: as §1

[30] = biological target: Gal(b1-4)GlcNAc(b1-3)Gal(b1-4)GlcNAc(b1-3)Gal(b1-4)GlcNAc(b1-2)Man(a1-3)[Gal(b1-4)GlcNAc(b1-3)Gal(b1-4)GlcNAc(b1-3)Gal(b1-4)GlcNAc(b1-2)Man(a1-6)]Man(b1-4)GlcNAc(b1-4)GlcNAc
Procedure, shortened: as §1

[31] = biological target: Gal(b1-4)GlcNAc(b1-3)Gal(b1-4)GlcNAc(b1-3)Gal(b1-4)GlcNAc(b1-2)Man(a1-3)[Gal(b1-4)GlcNAc(b1-3)Gal(b1-4)GlcNAc(b1-3)Gal(b1-4)GlcNAc(b1-2)Man(a1-6)]Man(b1-4)GlcNAc(b1-4)[Fuc(a1-6)]GlcNAc
Procedure, shortened: as §1

[32] = biological target: Gal(b1-4)GlcNAc(b1-3)Gal(b1-4)GlcNAc(b1-3)Gal(b1-4)GlcNAc(b1-2)[Gal(b1-4)GlcNAc(b1-3)Gal(b1-4)GlcNAc(b1-3)Gal(b1-4)GlcNAc(b1-6)]Man(a1-6)[Gal(b1-4)GlcNAc(b1-3)Gal(b1-4)GlcNAc(b1-3)Gal(b1-4)GlcNAc(b1-2)Man(a1-3)]Man(b1-4)GlcNAc(b1-4)[Fuc(a1-6)]GlcNAc
Procedure, shortened: as §1

[33] = biological target: Gal(b1-4)GlcNAc(b1-3)Gal(b1-4)GlcNAc(b1-3)Gal(b1-4)GlcNAc(b1-3)Gal(b1-4)GlcNAc(b1-2)Man(a1-3)[Gal(b1-4)GlcNAc(b1-3)Gal(b1-4)GlcNAc(b1-3)Gal(b1-4)GlcNAc(b1-3)Gal(b1-4)GlcNAc(b1-2)Man(a1-6)]Man(b1-4)GlcNAc(b1-4)GlcNAc
Procedure, shortened: as §1

B1: PX9961T-pdi-555-33-555 (Parabacteroides distasonis) (protein)
chain: FDEETAFQSPTLVYVNTVASLYNNMFKIMGNDRHVYDLNTFSSDEAMLPCRIGDWEDGGLWQNIFLHRWGTMNDLTKNSWDFLYEQIGKCNQSVDKLQAFAEEQPDVEYFKVYLEEVRAVRAFFYYELLDLFARVPLVTSSTTPMSEVKQSERSVVFNFVRSELEEALPYLSDNRSNQKGEYYGRITKPVAYMILAKLALNAEVYADDNWTDGNRPAGKNIKFTVDGKEMNAWEATIAYVDKLEALGYKLQGNFSENFAVANETSVENIFTVPMDPVAYPDAKDYNLVRTRHYDHATAYGQSGWNGSCATVKAMNVFKFGTADEDPRCKLTYFTGEVTGPDGKTIYTEWDGQKVPLKYEPNAPKVYMDASDGLLVKTAGARMAKYEFDQNAQDGGNLHGNDCVIFRFADALLMKAEAKIRLGQNGDDEVNQVRNRVGAKPLQNVTLDTLLDERMLELAWEGVRRQDLIRFGKFTEATVDRYVGVKHFASSLDYQEDKTGYTTVFSIYADILSLNPNLTQNPGY
Question: Which results are given for B1?
Answer: glycan array binding signal (z-score) (Gal(b1-4)Glc): -0.268; glycan array binding signal (z-score) (Gal(b1-4)Glc6S): -0.444; glycan array binding signal (z-score) (Gal(b1-4)GlcNAc): -0.332; glycan array binding signal (z-score) [1]: -0.188; glycan array binding signal (z-score) (Gal(b1-4)GlcNAc(b1-2)Man): -0.096; glycan array binding signal (z-score) [2]: -0.441; glycan array binding signal (z-score) [3]: 0.254; glycan array binding signal (z-score) [4]: 0.171; glycan array binding signal (z-score) [5]: -0.228; glycan array binding signal (z-score) [6]: 0.434; glycan array binding signal (z-score) [7]: 0.627; glycan array binding signal (z-score) [8]: 1.19; glycan array binding signal (z-score) [9]: 0.642; glycan array binding signal (z-score) [10]: 0.047; glycan array binding signal (z-score) [11]: -0.306; glycan array binding signal (z-score) [12]: -0.664; glycan array binding signal (z-score) [13]: -0.487; glycan array binding signal (z-score) [14]: -0.253; glycan array binding signal (z-score) [15]: 0.304; glycan array binding signal (z-score) [16]: 0.013; glycan array binding signal (z-score) [17]: -0.161; glycan array binding signal (z-score) [18]: 0.789; glycan array binding signal (z-score) [19]: -0.325; glycan array binding signal (z-score) [20]: -0.293; glycan array binding signal (z-score) [21]: -0.561; glycan array binding signal (z-score) [22]: 0.293; glycan array binding signal (z-score) [23]: -0.468; glycan array binding signal (z-score) [24]: -0.308; glycan array binding signal (z-score) [25]: 1.46; glycan array binding signal (z-score) [26]: 0.672; glycan array binding signal (z-score) [27]: 1.53; glycan array binding signal (z-score) [28]: 0.117; glycan array binding signal (z-score) [29]: -0.104; glycan array binding signal (z-score) [30]: 0.899; glycan array binding signal (z-score) [31]: -0.094; glycan array binding signal (z-score) [32]: -0.136; glycan array binding signal (z-score) [33]: -0.456
